Measured values taken from PMC4336329 (PLoS ONE, 2015).
The campaign covered roughly 310,000 compounds. About 14,000 (4.5%) showed an effect of 50% or more. Effects have a minus sign here. Some of the results follow.

target: human ether-à-go-go-related gene (hERG) potassium channel (human, UniProt Q12809); experiment: primary screen, population patch clamp on CHO cells stably expressing hERG
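Note: peak tail current of the secondary pulse compared with the same well before compound.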

Sequence of human ether-à-go-go-related gene (hERG) potassium channel (Q12809 whole entry, looked up): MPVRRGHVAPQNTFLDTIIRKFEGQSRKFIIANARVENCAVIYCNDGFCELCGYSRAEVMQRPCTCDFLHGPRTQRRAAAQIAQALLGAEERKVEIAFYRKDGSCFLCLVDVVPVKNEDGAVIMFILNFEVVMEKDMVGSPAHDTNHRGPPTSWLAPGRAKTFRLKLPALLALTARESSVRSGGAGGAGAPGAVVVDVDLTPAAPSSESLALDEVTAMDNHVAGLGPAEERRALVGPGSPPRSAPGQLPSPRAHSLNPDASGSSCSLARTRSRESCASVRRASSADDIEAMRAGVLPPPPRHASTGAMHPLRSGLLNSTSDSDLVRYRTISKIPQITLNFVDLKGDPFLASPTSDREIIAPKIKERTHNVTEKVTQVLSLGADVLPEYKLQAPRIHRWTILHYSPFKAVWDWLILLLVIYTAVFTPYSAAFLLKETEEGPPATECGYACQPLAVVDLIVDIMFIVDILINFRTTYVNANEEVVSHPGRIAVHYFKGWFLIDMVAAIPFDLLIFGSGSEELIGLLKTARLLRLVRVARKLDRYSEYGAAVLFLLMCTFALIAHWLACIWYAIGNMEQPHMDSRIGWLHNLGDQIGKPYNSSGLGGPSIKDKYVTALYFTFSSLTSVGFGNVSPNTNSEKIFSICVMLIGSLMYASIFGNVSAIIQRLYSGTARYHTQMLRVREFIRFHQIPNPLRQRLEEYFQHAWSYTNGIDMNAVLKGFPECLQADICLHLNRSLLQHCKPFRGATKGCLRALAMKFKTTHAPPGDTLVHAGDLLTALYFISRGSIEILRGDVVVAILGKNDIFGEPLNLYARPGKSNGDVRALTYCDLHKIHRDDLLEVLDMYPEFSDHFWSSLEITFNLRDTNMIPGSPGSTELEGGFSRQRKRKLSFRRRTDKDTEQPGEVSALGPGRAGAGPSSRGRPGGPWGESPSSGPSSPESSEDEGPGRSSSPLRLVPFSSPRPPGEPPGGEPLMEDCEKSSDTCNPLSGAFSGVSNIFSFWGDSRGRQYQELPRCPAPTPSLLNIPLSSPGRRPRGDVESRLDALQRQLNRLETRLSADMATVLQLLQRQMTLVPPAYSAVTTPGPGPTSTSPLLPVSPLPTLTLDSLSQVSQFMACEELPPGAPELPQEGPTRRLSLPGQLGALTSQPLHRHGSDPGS

Structure (SMILES) | hERG current change (%, negative = inhibition) at 10uM [%]
Cc1cccc(/C=N/n2c(C3CCCCC3)n[nH]c2=S)c1 | 17.8
CC1Sc2ccc(C(=O)OCc3ccccc3Cl)cc2NC1=O (stereo not drawn) | 4.64
COc1ccc(CC(=O)N[C@@H](C)C(=O)N2CCC3(CC2)NCCc2[nH]cnc23)cc1 | -0.0497
CC(=NCCc1ccccc1)c1c(O)[nH]c(=O)[nH]c1=O | -4.86
COc1ccccc1NC(=O)CS(=O)(=O)c1cn(CC(=O)N(C(C)C)C(C)C)c2ccccc12 | -43.2
O=C(N/N=C/c1ccc2c(c1)OCO2)c1ccc(Cl)cc1Cl | 20.3
CCc1ccc(NC(=O)CCCn2nc(CC)n3c(cc4occc43)c2=O)cc1 | -7.22
CC(C)(C)c1ccc(COC(=O)CNC(=O)CNC(=O)Cc2ccccc2)cc1 | -6.93
CCCc1nnc(NC(=O)Cn2c(=O)oc3ccccc32)s1 | 21
O=S(=O)(c1ccccc1)N1CCCCC1c1cccnc1 (stereo not drawn) | 2.3
O=C(CSc1ccc([N+](=O)[O-])cn1)Nc1cc(C(F)(F)F)ccc1N1CCOCC1 | -34.6
COc1ccc(CN2C(=O)c3cccnc3C2Nc2ccc(OC)c(Cl)c2)cc1 (stereo not drawn) | -11.7
CCCc1nc2oc3cc(OC)ccc3c(=O)c2c(=O)n1Cc1ccco1 | -40.4
COc1ccc2c(c1)-c1c(ssc1=S)C(C)(C)N2 | 0.994
CCC(C)NC(=O)C1CCN(S(=O)(=O)c2cccc3cccnc23)CC1 (stereo not drawn) | -4.92
O=C(c1ccc(S(=O)(=O)Cc2ccccc2F)c([N+](=O)[O-])c1)N1CCCC1 | -1.17
FC(F)Oc1ccccc1C1CC(c2ccc(Br)s2)Nc2ncnn21 (stereo not drawn) | 2.37
CC(C)c1ccccc1NC(=O)c1ccccc1NC(=O)C1CCCCC1 | -2.69
Cc1ccc(-c2nnn(C/C(N)=N/O)n2)cc1 | 7.71
CCn1cc(/C=N/NC(=O)c2ccc(C#N)cc2F)c2ccccc21 | -9.49
CN(C)c1cccc2c1c(NC(=O)Nc1ccccc1)nn2C | 7.45

Structure (SMILES) | hERG current change (%, negative = inhibition) at 10uM [%]
COc1ccc(/C=N\NC(=O)c2cc(O)c(O)c(O)c2)cc1CN1CCN(c2ccc(F)cc2)CC1 | 14.6
CC(C)(C)NC(=O)c1cccc(NC(=O)Cc2ccc(Br)cc2)c1 | -38
CCC1(CC)C(=O)C(C)(C)C(=O)OC1c1ccccn1 (stereo not drawn) | -1.39
Cc1c(C#N)c(N=CN(C)C)c(C(=O)c2ccccc2)n1-c1ccccc1 | -2.71
CC(C)(C)OC(=O)N1CCC(CC2CC(c3ccccc3)=NO2)(C(=O)NCc2ccccc2)CC1 (stereo not drawn) | -18.3
COc1ccccc1N1CCN(CC(O)c2ccccc2)CC1 (stereo not drawn) | -8.46
Cc1ccc(C(=O)N=c2sccn2C)cc1C | -5.78
O=C(NNc1nc2ccccc2s1)C1CC1 | 1.39
COc1cc(COCC(O)CN2CCN(CCN3C(=O)c4cccc5cccc(c45)C3=O)CC2)cc(OC)c1OC.Cl (stereo not drawn) | -62
O=C(Cc1ccc(F)cc1)OCn1nnc2ccccc2c1=O | 10.8
CSCC(CO)NS(=O)(=O)c1ccc(C)cc1 (stereo not drawn) | 3.61
Cc1ccc(S(=O)(=O)Nc2cc(C(C(=O)OC(C)C)C(=O)C(F)(F)F)c(O)c3ccccc23)c(C)c1 (stereo not drawn) | 13.3
Cc1ccccc1NS(=O)(=O)c1ccc(C(=O)N2CC(C)OC(C)C2)cc1 (stereo not drawn) | 8.78
O=C(COC(=O)c1cccc(S(=O)(=O)N2CCc3ccccc32)c1)Nc1ccc(Cl)cn1 | 5.99
CCOC(=O)N1CCC(Nc2c(-c3ccccc3)c(=O)c2=O)CC1 | -23.2
O=C(NCCc1c[nH]c2ccc(Cl)cc12)c1cccnc1 | 2.88
Cc1ccc(O)c(C(=O)c2cc(C(=O)NCc3ccccc3)c(=O)n(Cc3ccccc3)c2)c1 | -12.1
COc1cccc(CN(C)C(=S)Nc2ccc(C)c(C)c2)c1 | 2.74
CCOC(=O)N1CCC(NC(=O)c2cccc3c2C(=O)N(Cc2cccnc2)C3)CC1 | -13.9
O=C(CSc1ccc(-c2cccnc2)nn1)Nc1ccccc1 | -22.9
CC(=O)c1ccc(NC(=O)Nc2ccc(S(=O)(=O)N3CCCC3)cc2)cc1 | 14
